Reference: the supplement of paper PMC3334620
In all, about 33,000 sequences were measured (“E-score (-0.5 to 0.5)”: median about -0.021, highest 2% from about 0.32 on). The list shows a part of the results.

target: T1, Zap1 (UniProt P47043); test: PBM E-score (8-mer binding enrichment) (E-score (-0.5 to 0.5)); higher = stronger / more preferred TF binding; most listed sequences are background and not binding sites; conditions: protein concentration: 200 nM; construct: GST-full length
T1 sequence: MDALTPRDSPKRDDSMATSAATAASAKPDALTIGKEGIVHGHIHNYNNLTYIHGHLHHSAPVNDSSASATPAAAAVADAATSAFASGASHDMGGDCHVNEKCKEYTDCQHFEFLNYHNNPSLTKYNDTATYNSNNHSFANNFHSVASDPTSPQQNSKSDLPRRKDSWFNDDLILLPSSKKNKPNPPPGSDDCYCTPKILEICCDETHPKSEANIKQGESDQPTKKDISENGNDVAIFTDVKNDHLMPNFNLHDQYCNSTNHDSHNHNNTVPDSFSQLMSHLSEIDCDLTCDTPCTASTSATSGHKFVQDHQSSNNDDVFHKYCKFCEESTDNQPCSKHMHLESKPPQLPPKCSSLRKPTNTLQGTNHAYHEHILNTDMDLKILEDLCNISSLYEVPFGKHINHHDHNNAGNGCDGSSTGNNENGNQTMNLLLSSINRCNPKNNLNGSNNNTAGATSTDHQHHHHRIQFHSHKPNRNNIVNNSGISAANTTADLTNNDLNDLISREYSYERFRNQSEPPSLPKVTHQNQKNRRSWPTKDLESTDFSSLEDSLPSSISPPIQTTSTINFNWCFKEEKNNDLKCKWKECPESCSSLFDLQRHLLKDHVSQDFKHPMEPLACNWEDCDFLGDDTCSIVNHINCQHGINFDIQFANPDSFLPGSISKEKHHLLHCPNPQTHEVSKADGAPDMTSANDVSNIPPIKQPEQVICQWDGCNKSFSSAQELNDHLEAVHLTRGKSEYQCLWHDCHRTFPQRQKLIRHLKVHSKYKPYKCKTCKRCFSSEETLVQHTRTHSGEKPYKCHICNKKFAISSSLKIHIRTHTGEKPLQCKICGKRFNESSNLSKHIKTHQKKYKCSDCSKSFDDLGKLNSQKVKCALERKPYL
How it was run: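 Masliner-normalised scans of fluorescent anti-GST signal were the basis for scoring. That signal came from GST-tagged yeast transcription factors applied at about 100-200 nM to double-stranded universal all-10-mer Agilent arrays on fresh or once-stripped slides. Each ungapped eight-base word, pooled with its reverse complement, received an E-score from the Universal PBM Analysis Suite.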

Compared with CGTCGCTA, TCGGTCAA is higher in “PBM E-score” value: -0.0625 for the first, 0.0938 for the second.

Compared with GATTAAGC, ACATAAGT is higher in “PBM E-score” value: -0.141 for the first, -0.0816 for the second.

First: AAACTTCA
Second: CTCCCCGA
The “PBM E-score” value of the first is higher: 0.00932 for the first, -0.0635 for the second.

Compared with CAAATCTG, AATTTAGC is higher in “PBM E-score” value: -0.025 for the first, 0.0216 for the second.

First: ACGCGACG
Second: CACTACAA
The “PBM E-score” value of the first is lower: -0.0804 for the first, 0.141 for the second.

Going from ACGGCGAT to AAAGTTCT, the “PBM E-score” value falls from -0.0981 to -0.114.

Going from GGGGCACC to ATACAATG, the “PBM E-score” value rises from 0.0177 to 0.0742.

Compared with AATGGGAA, AACATGGC is lower in “PBM E-score” value: -0.235 for the first, -0.325 for the second.

Compared with CGGTGAAA, AAGAAGAT is lower in “PBM E-score” value: 0.0511 for the first, 0.00139 for the second.

First: AAAGTAAA
Second: AGAAAGTG
The “PBM E-score” value of the first is higher: 0.0371 for the first, -0.12 for the second.

Going from ATGAGTAA to ATTGCATC, the “PBM E-score” value falls from 0.042 to -0.00765.

First: CTTTTCCC
Second: ATCACAAC
The “PBM E-score” value of the first is lower: -0.111 for the first, 0.191 for the second.

Going from TCTGCAAA to AGCGCCGA, the “PBM E-score” value falls from -0.0699 to -0.227.

First: AGAGCCTA
Second: GTACATAC
The “PBM E-score” value of the first is lower: -0.224 for the first, -0.0078 for the second.

Compared with AACACGTT, GCAATAGA is higher in “PBM E-score” value: -0.244 for the first, -0.159 for the second.

Going from CTCCTTTA to AAGAAATA, the “PBM E-score” value rises from -0.101 to 0.0992.

Compared with ATGCTATA, GCTCCACA is lower in “PBM E-score” value: -0.0594 for the first, -0.199 for the second.

Going from GAAAAAGC to ACGAAAAG, the “PBM E-score” value falls from 0.116 to 0.0301.

First: CAACTGAC
Second: CTAGTGAG
The “PBM E-score” value of the first is lower: -0.0851 for the first, -0.0258 for the second.

First: ATCTTAAG
Second: CTTAACTA
The “PBM E-score” value of the first is lower: -0.0759 for the first, 0.104 for the second.

Compared with CGTCTGAC, CAGGTGGA is lower in “PBM E-score” value: -0.0141 for the first, -0.26 for the second.

Going from TGTAACAA to AACGCCCC, the “PBM E-score” value falls from 0.137 to 0.0639.

First: ATCAGAAA
Second: ATTCTCAG
The “PBM E-score” value of the first is higher: 0.0764 for the first, -0.0721 for the second.

Compared with AATAGGGC, ACTTTCAT is higher in “PBM E-score” value: -0.152 for the first, 0.105 for the second.

First: AAAGGCAT
Second: CTGCGATC
The “PBM E-score” value of the first is higher: -0.0928 for the first, -0.138 for the second.

Compared with AGCTGAGC, GGAGGCGA is lower in “PBM E-score” value: -0.185 for the first, -0.32 for the second.

Compared with AATCCTTG, CCTCATTA is higher in “PBM E-score” value: 0.0209 for the first, 0.257 for the second.

Compared with TCGCCAAA, ATTTGCTG is lower in “PBM E-score” value: 0.165 for the first, 0.0428 for the second.

First: AGTTCTCG
Second: CAGCGACC
The “PBM E-score” value of the first is lower: -0.0306 for the first, 0.0723 for the second.

Compared with AAGTCAAC, AATATCAC is lower in “PBM E-score” value: 0.0212 for the first, -0.0168 for the second.

First: ACGGCTCT
Second: CAATAAGA
The “PBM E-score” value of the first is lower: -0.205 for the first, 0.101 for the second.

Going from ATCCCCGA to ATACTTCA, the “PBM E-score” value rises from -0.145 to -0.0599.

Going from ATCTTAAA to GAGCCCCC, the “PBM E-score” value falls from 0.194 to -0.216.

Compared with CCTTGCTA, CAAGCGGA is lower in “PBM E-score” value: 0.105 for the first, -0.217 for the second.

Going from AGAAGCCA to ATGAGGAG, the “PBM E-score” value falls from -0.0472 to -0.273.

First: CCCGTCAC
Second: ATCGATGC
The “PBM E-score” value of the first is higher: 0.0288 for the first, -0.0302 for the second.

Compared with GACGATAA, CTTAATGA is higher in “PBM E-score” value: 0.0193 for the first, 0.0983 for the second.

First: CCGACTAG
Second: AAATTTAT
The “PBM E-score” value of the first is lower: -0.231 for the first, 0.0296 for the second.

First: AGCGGCAT
Second: GCATTTCC
The “PBM E-score” value of the first is higher: -0.0116 for the first, -0.101 for the second.

Going from GTCCAGGA to TTCACCAA, the “PBM E-score” value rises from -0.0884 to 0.0162.

Going from AGTATCAC to GATCTTCC, the “PBM E-score” value falls from 0.0276 to -0.101.

Compared with AATCACGG, GTCGTACA is lower in “PBM E-score” value: 0.173 for the first, -0.0132 for the second.

First: CCACACGG
Second: ATGCGGAA
The “PBM E-score” value of the first is higher: 0.116 for the first, -0.0497 for the second.

First: AACACTAC
Second: CGGCACAG
The “PBM E-score” value of the first is higher: 0.152 for the first, -0.191 for the second.

First: GAGATTTA
Second: CACTATGC
The “PBM E-score” value of the first is higher: -0.085 for the first, -0.106 for the second.

First: AGAATCGC
Second: CCGCGAAA
The “PBM E-score” value of the first is lower: -0.202 for the first, 0.141 for the second.

Compared with ACTTAATA, AGCCGTGC is lower in “PBM E-score” value: 0.0479 for the first, -0.283 for the second.

First: ACGCCAAA
Second: CAAAGCTA
The “PBM E-score” value of the first is lower: -0.122 for the first, 0.018 for the second.

Going from GGATTGAC to GATCGGAC, the “PBM E-score” value rises from -0.135 to -0.124.

First: AGGTGGTC
Second: ATATGCAC
The “PBM E-score” value of the first is higher: 0.142 for the first, -0.00523 for the second.

Compared with GTTACCCA, ATCGTTGG is lower in “PBM E-score” value: 0.312 for the first, 0.0101 for the second.

Compared with AAGTATCA, AAGATTAC is lower in “PBM E-score” value: 0.1 for the first, 0.0483 for the second.

First: GCGATAGA
Second: ACCTGAGG
The “PBM E-score” value of the first is lower: -0.12 for the first, 0.0112 for the second.

Compared with ATATAGCA, GCTACACC is higher in “PBM E-score” value: 0.0209 for the first, 0.0249 for the second.

Going from ACACGCGG to CAAACCAA, the “PBM E-score” value rises from 0.102 to 0.114.

First: ACATGTAG
Second: GCCTGGAA
The “PBM E-score” value of the first is higher: 0.0452 for the first, -0.0664 for the second.

Going from CAACACTG to CGCTACCC, the “PBM E-score” value rises from -0.0719 to 0.302.

Going from AAACTGCC to AGTACAAA, the “PBM E-score” value rises from -0.0435 to 0.125.

Going from CGGCGATA to CGTTCAGA, the “PBM E-score” value falls from -0.0117 to -0.0764.

Going from CGATAACA to ATGATGCA, the “PBM E-score” value falls from 0.131 to -0.0633.

First: ATTGCATA
Second: AACACGAG
The “PBM E-score” value of the first is lower: 0.0531 for the first, 0.205 for the second.

Going from CCGCAGAG to AGCTAACC, the “PBM E-score” value rises from -0.136 to 0.253.

Compared with ACTGATAT, AAGCATGG is lower in “PBM E-score” value: -0.0416 for the first, -0.138 for the second.

Compared with ACACAAAT, CATACACG is lower in “PBM E-score” value: 0.161 for the first, 0.0354 for the second.

Compared with CTGCAGGA, AGGCGGTA is higher in “PBM E-score” value: 0.0103 for the first, 0.0442 for the second.

Going from CAGGTAAG to CGAGCTCA, the “PBM E-score” value rises from -0.0717 to -0.0242.

Compared with GTAAGCGA, CCATAAAC is higher in “PBM E-score” value: -0.0888 for the first, 0.0419 for the second.

Going from TCCGAGAA to GAATGACA, the “PBM E-score” value falls from 0.0508 to -0.0394.

First: AATAGCGT
Second: GGGTGGCA
The “PBM E-score” value of the first is higher: 0.0933 for the first, 0.0831 for the second.

Compared with GGTCCCAC, AGACGCGC is lower in “PBM E-score” value: 0.0167 for the first, -0.155 for the second.

Going from CCAGGCGG to AAGAATGT, the “PBM E-score” value rises from -0.0447 to -0.0207.

First: CGACCCGA
Second: AGGTCGAA
The “PBM E-score” value of the first is lower: 0.0168 for the first, 0.11 for the second.

First: CGTCTAAC
Second: CTAATCAA
The “PBM E-score” value of the first is lower: 0.059 for the first, 0.152 for the second.

First: AGGACGCC
Second: CACTTTAC
The “PBM E-score” value of the first is lower: -0.153 for the first, 0.0657 for the second.

Going from ATTAAGGC to CAGCGAAA, the “PBM E-score” value falls from 0.108 to -0.0658.

First: ATGGGGTG
Second: GGTTACGA
The “PBM E-score” value of the first is lower: 0.143 for the first, 0.465 for the second.

First: GTGGCCTA
Second: CCCTTTCA
The “PBM E-score” value of the first is lower: 0.0774 for the first, 0.157 for the second.

Going from GCTAATAC to ACATTATA, the “PBM E-score” value rises from -0.0374 to 0.0124.

Going from CTCTTCCA to CACGGGGA, the “PBM E-score” value falls from -0.145 to -0.219.

Going from ATTACAAG to TTGATAAA, the “PBM E-score” value rises from 0.0699 to 0.26.

Compared with ATAACGGG, GACAAGTC is lower in “PBM E-score” value: -0.0354 for the first, -0.338 for the second.

Going from ATGAATCA to CCGTATCA, the “PBM E-score” value falls from -0.00312 to -0.107.

Going from ATACCGGC to CTGTTTAA, the “PBM E-score” value rises from 4e-05 to 0.159.

Compared with AATCGCAA, CACATCTG is lower in “PBM E-score” value: 0.15 for the first, -0.164 for the second.

Compared with CCTTCGTA, CTTTCGGC is lower in “PBM E-score” value: 0.0211 for the first, -0.115 for the second.

First: TAAGCTAA
Second: AGTACGGG
The “PBM E-score” value of the first is higher: 0.151 for the first, -0.291 for the second.
